Measured values reported in patent publication US20260232830A1, “ANTIGEN BINDING MOLECULE SPECIFICALLY BINDING TO EGFR AND MUC1, DRUG CONJUGATE THEREOF, AND MEDICAL USE THEREOF” (Jiangsu Hengrui Pharmaceuticals Co., Ltd., priority 2023, published 2026).

B1: ZalH5: anti-EGFR antibody, zalutumumab variant: VH ZalVH5 (SEQ ID NO: 139), VL ZalVL1 (antibody)
heavy: QVQLVESGGGVVQPGRSLRLSCAASGFTFSTYGMHWVRQAPGKGLEWVAVIWDDGSYKYYGDSVKGRFTISRDNSKNTLYLQMNSLRAEDTAVYYCARDGATMVRGVMKDYFDYWGQGTLVTVSS[human IgG1 constant region not spelt out]
light: DIQLTQSPSSLSASVGDRVTITCRASQDISSALVWYQQKPGKAPKLLIYDASSLESGVPSRFSGSESGTDFTLTISSLQPEDFATYYCQQFNSYPLTFGGGTKVEIKRTVAAPSVFIFPPSDEQLKSGTASVVCLLNNFYPREAKVQWKVDNALQSGNSQESVTEQDSKDSTYSLSSTLTLSKADYEKHKVYACEVTHQGLSSPVTKSFNRGEC
B2: ZalH7: anti-EGFR antibody, zalutumumab variant: VH ZalVH7 (SEQ ID NO: 141), VL ZalVL1 (antibody)
heavy: B1 heavy with T31S, D53E, A101I
light: B1 light
B3: ZalH8: anti-EGFR antibody, zalutumumab variant: VH ZalVH8 (SEQ ID NO: 142), VL ZalVL1 (antibody)
heavy: B1 heavy with T31S, A101L
light: B1 light
B4: ZalH9: anti-EGFR antibody, zalutumumab variant: VH ZalVH9 (SEQ ID NO: 143), VL ZalVL1 (antibody)
heavy: B1 heavy with T31S, A101V
light: B1 light
B5: ZalH10: anti-EGFR antibody, zalutumumab variant: VH ZalVH10 (SEQ ID NO: 144), VL ZalVL1 (antibody)
heavy: B1 heavy with T31S
light: B1 light
B6: ZalH12: anti-EGFR antibody, zalutumumab variant: VH ZalVH12 (SEQ ID NO: 146), VL ZalVL1 (antibody)
heavy: B1 heavy with Y57N, A101I
light: B1 light
B7: ZalH13: anti-EGFR antibody, zalutumumab variant: VH ZalVH13 (SEQ ID NO: 147), VL ZalVL1 (antibody)
heavy: B1 heavy with T31S, G33A, A101I
light: B1 light
B8: ZalH14: anti-EGFR antibody, zalutumumab variant: VH ZalVH14 (SEQ ID NO: 148), VL ZalVL1 (antibody)
heavy: B1 heavy with D53Y, Y57N, G61A, A101I
light: B1 light
B9: ZalH2: anti-EGFR antibody, zalutumumab variant: VH ZalVH2 (SEQ ID NO: 136), VL ZalVL1 (antibody)
heavy: B1 heavy with D53E, A101I
light: B1 light
B10: ZalH3: anti-EGFR antibody, zalutumumab variant: VH ZalVH3 (SEQ ID NO: 137), VL ZalVL1 (antibody)
heavy: B1 heavy with A101L
light: B1 light

Target: human EGFR-His antigen (Homo sapiens, UniProt P00533)
Test: Determination of affinity of anti-EGFR antibodies using Biacore
Conditions: Table 22, Biacore 8K, 1:1 binding model

Going from B1 to B2, the “ka” value falls from 129000 M⁻¹ s⁻¹ to 79500 M⁻¹ s⁻¹ (1.6-fold).

Compared with B3, B4 is 1.7-fold lower in “ka” value: 76500 M⁻¹ s⁻¹ for the first, 45400 M⁻¹ s⁻¹ for the second.

B5 and B6 are within 1.5-fold of each other in “ka” value: 131000 M⁻¹ s⁻¹ for the first, 120000 M⁻¹ s⁻¹ for the second.

B7 and B8 are within 1.5-fold of each other in “ka” value: 95500 M⁻¹ s⁻¹ for the first, 131000 M⁻¹ s⁻¹ for the second.

B9 and B10 are within 1.5-fold of each other in “ka” value: 87400 M⁻¹ s⁻¹ for the first, 80500 M⁻¹ s⁻¹ for the second.

Compared with B1, B2 is 1.6-fold lower in “kd” value: 0.0125 s⁻¹ for the first, 0.00761 s⁻¹ for the second.

First: B3
Second: B4
The “kd” value of the first is 16-fold higher: 0.0369 s⁻¹ for the first, 0.00234 s⁻¹ for the second.

B5 and B6 are within 1.5-fold of each other in “kd” value: 0.0174 s⁻¹ for the first, 0.0144 s⁻¹ for the second.

Compared with B7, B8 is 150-fold higher in “kd” value: 0.000187 s⁻¹ for the first, 0.0275 s⁻¹ for the second.

Going from B9 to B10, the “kd” value rises from 0.00812 s⁻¹ to 0.0243 s⁻¹ (3-fold).

Substitutions are numbered along the chain they refer to.
